Values quoted from earlier work in US4161598A, “1-Oxygenated-2,6-methano-3-benzazocines” (Sterling Drug Inc., priority 1977, dated 1979).

System: writhing
Settings: Ziering reference; cited from earlier work

| Structure (SMILES) | activity in the writhing test for analgesia in the mouse |
| --- | --- |
| COc1ccc2c(c1)[C@]1(C)CCN(C)[C@@H]([C@@H]1C)[C@@]2(O)c1ccccc1 (relative stereo) [Compound 13] | weakly active |
| COc1ccc2c(c1)[C@]1(C)CCN(C)[C@@H]([C@@H]1C)[C@]2(C)O (relative stereo) [Compound 14] | weakly active |
